In the supplement of paper PMC12217912:
The list shows a part of the results. The full chains were built here from the parent and the listed change. Inactive controls read about 0.05.

B1: TEV protease; numbered along this chain (parent)
chain: MGESLFKGPRDYNPISSSICHLTNESDGHTTSLYGIGFGPFIITNKHLFRRNNGTLVVQSLHGVFKVKDTTTLQQHLVDGRDMIIIRMPKDFPPFPQKLKFREPQREERICLVTTNFQTKSMSSMVSDTSCTFPSGDGIFWKHWIQTKDGQCGSPLVSTRDGFIVGIHSASNFTNTNNYFTSVPKNFMELLTNQEAQQWVSGWRLNADSVLWGGHKVFMVKPEEPFQPVKEATQL

Variants of: B1
Test: raw area under fraction-flipped curve 0-4 h after induction (AUC4h, not background-subtracted), DNA-recorder readout of cleavage of the substrate (dimensionless); higher = more cleavage of the substrate by the protease variant
Settings: temperature: 34 °C; time window: 0-4 h after rhamnose induction
Protocol: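 In vivo DNA recorder in E. coli TOP10(DE3) ΔrhaA at 34 °C. Each TEVp single-site mutant (parent TEVp 0) is paired with a single-site variant of the 7-mer TEVs (canonical ENLYFQ|S). The substrate sits between flexible linkers in a Bxb1-sfGFP-TEVs-SsrA fusion, so cleavage stabilises Bxb1 and speeds flipping of a recombination array, read by NGS. The value is the raw area under the fraction-flipped curve over 0-4 h after rhamnose induction (AUC4h), with ≥20 reads per time point. It is not background-subtracted; inactive controls average about 0.047.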
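Further: Bxb1 expression induced with 0.2% (w/v) L-rhamnose at OD600 near 0.5, cultures sampled hourly, flipped fraction per protease–substrate barcode pair counted by paired-end Illumina sequencing.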

Variant | area with substrate ANLYFQS | area with substrate CNLYFQS | area with substrate GNLYFQS | area with substrate HNLYFQS | area with substrate INLYFQS | area with substrate KNLYFQS | area with substrate MNLYFQS | area with substrate NNLYFQS | area with substrate PNLYFQS | area with substrate QNLYFQS | area with substrate RNLYFQS | area with substrate TNLYFQS | area with substrate VNLYFQS | area with substrate WNLYFQS | area with substrate YNLYFQS | area with substrate LNLYFQS | area with substrate FNLYFQS | area with substrate SNLYFQS | area with substrate DNLYFQS
S17N | 0.0626 | 0.0492 | 0.0709 | 0.0491 | 0.0692 | 0.0642 | 0.086 | 0.0675 | 0.0325 | 0.101 | 0.065 | 0.0781 | 0.0718 | 0.0587 | 0.0519 | – | – | – | –
S17R | 0.0577 | 0.0664 | 0.0636 | 0.0682 | 0.0554 | 0.0465 | – | 0.0692 | 0.0649 | – | – | 0.0658 | – | 0.0466 | 0.0887 | 0.0553 | – | – | –
S17V | 0.0622 | 0.0793 | 0.0619 | 0.0586 | 0.0726 | 0.0732 | 0.0565 | 0.0748 | 0.0678 | 0.0711 | – | 0.0664 | – | 0.0555 | 0.0659 | 0.0578 | 0.0607 | 0.0653 | –
S18I | 0.0529 | 0.0649 | 0.081 | – | 0.0524 | – | 0.0533 | 0.0744 | – | – | 0.0431 | 0.0574 | – | 0.0609 | – | 0.0611 | 0.069 | – | –
S18L | 0.0652 | 0.0665 | 0.0557 | 0.0584 | – | – | – | 0.0573 | 0.0683 | – | – | 0.0645 | 0.0502 | 0.0543 | 0.0552 | 0.0623 | 0.0695 | 0.0516 | –
I19C | 0.0755 | – | 0.06 | 0.0574 | 0.0612 | 0.0671 | – | 0.0605 | 0.105 | – | – | 0.0846 | 0.0827 | – | 0.0619 | 0.0679 | – | – | 0.0759
I19E | 0.0485 | 0.045 | 0.0438 | 0.0493 | 0.0549 | 0.0347 | 0.0436 | 0.052 | 0.0377 | 0.0629 | – | 0.0507 | 0.0428 | 0.0363 | 0.0332 | 0.0389 | 0.052 | 0.0451 | 0.0532
I19F | 0.0499 | 0.0665 | 0.0709 | 0.0634 | – | 0.0483 | 0.0584 | 0.0531 | 0.0656 | – | 0.109 | 0.049 | 0.0615 | 0.058 | 0 | 0.0551 | 0.0455 | 0.0503 | –
I19L | 0.0695 | 0.0634 | 0.0528 | 0.0603 | 0.0516 | 0.0764 | – | 0.0595 | 0.0789 | – | 0.0634 | 0.0698 | 0.0673 | 0.0618 | 0.0624 | – | 0.061 | 0.0685 | –
C20D | 0.0451 | 0.0345 | 0.0405 | 0.0394 | 0.0412 | 0.048 | 0.0475 | 0.0442 | 0.0538 | 0.0553 | 0.0275 | 0.0534 | – | 0.0337 | 0.0369 | 0.0482 | 0.0663 | 0.0586 | –
C20G | 0.0421 | 0.0385 | – | – | – | – | – | – | – | – | – | – | – | – | – | – | – | 0.0532 | –
C20H | 0.0428 | 0.0469 | 0.033 | 0.0523 | 0.0422 | – | – | 0.0409 | 0.0553 | 0.0279 | – | 0.052 | – | 0.0466 | 0.0599 | – | 0.0347 | 0.0515 | –
C20S | 0.0559 | 0.064 | 0.0533 | 0.0654 | – | 0.039 | – | 0.0346 | 0.049 | 0.0534 | – | 0.0658 | – | 0.0511 | – | 0.0477 | 0.0276 | 0.0469 | –
